{"source": "PubChem BioAssay AID1345083", "about": "(National Center for Advancing Translational Sciences (NCATS), 2018)", "note": "Screen size: about 94,000 compounds; about 6,200 (6.6%) were called active. This list was built around the results that the source calls inconclusive (neither active nor inactive); the mix of calls is not that of the screen. Calls come from the whole dose curve; as a rule, active = well fitted inhibition curve with a large enough effect; inconclusive = small, poorly fitted or top-dose-only effect; inactive = flat fitted curve, though single readings scatter. A potency beside an inconclusive call is a rough fit, not a confirmed value.", "data": [{"assay": "Cytotoxic Profiling in HEK 293 Cell Line of Diverse Libraries Using Quantitative High-Throughput Screening; note: nearly all actives have a fitted effect of over 60% in size; note: potency is the fitted concentration of half-maximal effect; tags give direction and shape of the fitted curve", "conditions": "HEK 293 viability, ATP luminescence (CellTiter-Glo), 48-72 h; series mostly up to 115 µM", "outline": "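HEK 293 cells seeded at 250 cells/well were exposed to compound for 48 or 72 hr at 37 degree Celsius. Viability taken as ATP content by CellTiter-Glo luminescence.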", "values": [{"compound": "O=C(Cc1ccccc1)NC1CCCN(c2ccc3nnc(C4CC4)n3n2)C1", "note": "(stereo unspecified)", "Potency": "inactive"}, {"compound": "COCCC(=O)N1C[C@@H](COC)[C@H](c2nc(C)no2)C1", "Potency": "inactive"}, {"compound": "CN(C)c1ccc(C(=O)N2CCCC(COc3ccccc3C(=O)N3CCCCC3)C2)cc1", "note": "(stereo unspecified)", "Potency": "inconclusive: 89.1 µM [inhibitor, single point]"}, {"compound": "Cn1nc(C2CC2)cc1NC(=O)c1ccc(Cl)nc1", "Potency": "inactive"}, {"compound": "Cc1noc2c(NC3CCC(O)CC3)cc(-c3ccc(Cl)cc3)nc12", "note": "(stereo unspecified)", "Potency": "active: 89.1 µM"}, {"compound": "COc1ccc(C2Cn3cnc(C(=O)N4CCC(C(=O)NCCC5=CCCCC5)CC4)c3CO2)cc1", "note": "(stereo unspecified)", "Potency": "inactive"}, {"compound": "Cc1cc(C)n2ncc(C(=O)NCc3cc4n(n3)CCN(C(=O)N(C)C)C4)c2n1", "Potency": "inactive"}, {"compound": "O=C(NCc1ccc(Cl)cc1)c1c[nH]c2cccnc12", "Potency": "active: 35.5 µM"}, {"compound": "N[S+](=O)([O-])c1ccc2c(c1)OCCN(Cc1ccccc1Cl)C2", "Potency": "inconclusive: 112 µM [inhibitor, partial curve, poor fit]"}, {"compound": "COC1CN(c2cccc(F)c2)C12CCN(C(=O)c1cccc(C)c1)CC2", "note": "(stereo unspecified)", "Potency": "inconclusive: 56.2 µM [inhibitor, partial curve, poor fit]"}, {"compound": "OC1(CNc2cc(C(F)(F)F)nc(N3CCCC3)n2)CCCNCC1", "note": "(stereo unspecified)", "Potency": "inconclusive: 89.1 µM [inhibitor, single point]"}, {"compound": "Cc1ncc(C(=O)N2CCC3(CC(=O)NC3=O)C2)c(-c2ccccc2)n1", "note": "(stereo unspecified)", "Potency": "inactive"}, {"compound": "CN1CCCCCC(O)c2cc(C(=O)N3CCN(c4ccc(F)cc4)CC3)ccc21", "note": "(stereo unspecified)", "Potency": "active: 44.7 µM"}, {"compound": "COCC(NC(=O)c1cc(S(N)(=O)=O)ccc1F)c1ccnn1C", "note": "(stereo unspecified)", "Potency": "inactive"}, {"compound": "Cc1c(F)cccc1NC(=O)N1CCCC(c2noc(COc3ccccc3)n2)C1", "note": "(stereo unspecified)", "Potency": "inconclusive: 56.2 µM [inhibitor, partial curve, poor fit]"}, {"compound": "CCC(=O)N1Cc2ccccc2CC2(CCN(Cc3ccc(NC(C)=O)cc3)C2)C1", "note": "(stereo unspecified)", "Potency": "inactive"}, {"compound": "Cc1cnc(C2CCN(C(=O)C3CCCC3)C2)n1Cc1ccccc1", "note": "(stereo unspecified)", "Potency": "inactive"}, {"compound": "Clc1ccc(-c2cnc([C@@H]3COCCN3CC3CC3)[nH]2)s1", "Potency": "active: 89.1 µM"}, {"compound": "CC(C)(C)c1ccc(-c2cc(C[C@H]3CNCC[C@H]3CC(=O)NCc3ccc(F)cc3)no2)cc1", "Potency": "active: 28.2 µM"}, {"compound": "OC1(CN2CCCCC2)CCN(Cc2cnc(-c3ccccn3)nc2)C1", "note": "(stereo unspecified)", "Potency": "inconclusive: 50.1 µM [inhibitor, partial curve, poor fit]"}, {"compound": "O=C1Nc2ccc(-c3ccccc3F)cc2C(=O)N2CCN(C(=O)NC3CCCCC3)C[C@H]12", "Potency": "inconclusive: 79.4 µM [inhibitor, partial curve, poor fit]"}, {"compound": "O=C(NCCC1CCN(C(=O)Nc2ccccc2)CC1)c1cccs1", "Potency": "inactive"}, {"compound": "CC(C)N(Cc1cccc(N2CCN(S(=O)(=O)c3c(Cl)cccc3Cl)CC2)c1F)S(C)(=O)=O", "Potency": "inconclusive: 31.6 µM [inhibitor, partial curve, poor fit]"}, {"compound": "Cc1noc(C)c1-c1cnc(Nc2ccncc2)c2c1CCO2", "Potency": "inconclusive: 5.01 µM [inhibitor, full curve, poor fit]"}, {"compound": "CNC(=O)CCn1ncc2cc(OCc3ccccc3-c3ccc(OC)cc3C)ccc21", "Potency": "active: 100 µM"}, {"compound": "C[S+](=O)([O-])N1CCC(c2nnc3n2C(C(=O)NCc2ccc(Cl)cc2)CC3)CC1", "note": "(stereo unspecified)", "Potency": "inactive"}, {"compound": "COc1cccc(C(=O)NC2CCN(c3nccc(Nc4ccccc4Cl)n3)CC2)c1", "Potency": "inconclusive: 56.2 µM [inhibitor, partial curve, poor fit]"}, {"compound": "COc1cccc(CC(=O)N2CCC3(CC2)C(OC)C(=O)N3CC2CC2)c1", "note": "(stereo unspecified)", "Potency": "inactive"}, {"compound": "Cn1ccc2c(C(=O)NCCc3cnc[nH]3)nc(-c3cccc(C(F)(F)F)c3)cc21", "Potency": "active: 39.8 µM"}, {"compound": "CC(=O)N1CCN(C(=O)c2ccc3c(c2)NC(C)(CCCCc2ccccc2)CO3)CC1", "note": "(stereo unspecified)", "Potency": "inconclusive: 112 µM [inhibitor, partial curve, poor fit]"}, {"compound": "COc1ccc(-c2nn(-c3ccccc3C)cc2CN(C)CCN2CCOCC2)cc1F", "Potency": "inconclusive: 25.1 µM [inhibitor, full curve, poor fit]"}, {"compound": "CSc1nccc(N2CCC3(CCCN(C(C)C)C3=O)C2)n1", "note": "(stereo unspecified)", "Potency": "inconclusive: 35.5 µM [inhibitor, full curve]"}, {"compound": "COc1ccc(C(=O)N2CCCC3(COc4ccccc4C(=O)N3)C2)cc1", "note": "(stereo unspecified)", "Potency": "inconclusive: 56.2 µM [inhibitor, partial curve, poor fit]"}, {"compound": "Cn1cc(CN2CCOC[C@H](Oc3ccc(S(C)(=O)=O)cc3)C2)c2ccccc21", "Potency": "active: 50.1 µM"}, {"compound": "Cc1ccc2c(c1)N1C(=O)OC[C@@H]1CCN(C(=O)c1ccccn1)C2", "Potency": "inactive"}, {"compound": "O=C(c1nccc2ccccc12)N1CCc2c(nc(-c3ccccc3)[nH]c2=O)C1", "Potency": "active: 25.1 µM"}, {"compound": "CC(C)Cc1cc(C[C@@H]2C[C@H](NC(=O)C(C)(C)C)C2(C)C)no1", "Potency": "inconclusive: 35.5 µM [inhibitor, full curve]"}, {"compound": "O=C1NCc2ccccc2CC12CCCN(Cc1c[nH]c3ccccc13)C2", "note": "(stereo unspecified)", "Potency": "inconclusive: 89.1 µM [inhibitor, partial curve, poor fit]"}, {"compound": "CN1CCC2(C1)CN(Cc1ccccc1)c1ccc(C(=O)NC3CCC3)cc12", "note": "(stereo unspecified)", "Potency": "inconclusive: 70.8 µM [inhibitor, partial curve, poor fit]"}, {"compound": "CNC(=O)[C@@H]1C[C@@H](n2cc(CN(C)C(=O)Nc3ccc(C)c(C)c3)nn2)CN1", "Potency": "inactive"}, {"compound": "Cn1cccc1-c1noc(C2CCN(C(=O)COc3ccc(F)cc3)CC2)n1", "Potency": "inconclusive: 39.8 µM [inhibitor, partial curve, poor fit]"}, {"compound": "CC(C)CCC(=O)N1CC(c2nnc(-c3ccncc3)o2)C2(CCOCC2)C1", "note": "(stereo unspecified)", "Potency": "inactive"}, {"compound": "O=C(CNC(=O)c1cccc(-c2ccsc2)c1)NCc1cccc(F)c1", "Potency": "inconclusive: 25.1 µM [inhibitor, full curve, poor fit]"}, {"compound": "c1ccc(CO[C@@H]2CO[C@H]3[C@@H]2OC[C@@H]3n2nnnc2SCc2ccco2)cc1", "Potency": "active: 89.1 µM"}, {"compound": "OCC1CN(Cc2cc(F)cc(Br)c2)CC12CCNCC2", "note": "(stereo unspecified)", "Potency": "active: 31.6 µM"}, {"compound": "O=C(NC1CCCC1)C1CCCN(Cc2cccc(-c3cccs3)c2)C1", "note": "(stereo unspecified)", "Potency": "active: 44.7 µM"}]}]}
